Laboratory results as given in a compilation of properties of binary mixtures (doi:10.1016/j.molliq.2016.08.002).
Some of these densities may be calculated back from excess volumes.

Test: xn = mol fraction of the nth substance listed
Details: 101 kPa

CC[n+]1ccn(C)c1.COS(=O)(=O)[O-] + CCCCCCO
mass density [kg/m3]
Details	298.15 K	303.15 K	308.15 K	313.15 K
x2 = 0.0409	1271.5	1268.4	1265.2	1262
x2 = 0.0677	1262.4	1259.3	1256	1252.8
x2 = 0.1329	1239.3	1236.2	1232.9	1229.7
x2 = 0.1958	–	–	–	1206.4
x2 = 0.2565	–	–	1186.2	1182.9
x2 = 0.3716	1145.8	1142.4	–	1135.7
x2 = 0.4791	–	1095.2	1091.6	1088.2
x2 = 0.5798	–	–	1044.2	–
x2 = 0.6742	1004.3	1000.5	996.7	993.2
x2 = 0.763	957.2	953.3	949.4	945.7
x2 = 0.8466	910.1	906.1	902.2	898.5
x2 = 0.9255	863.1	859.1	855.1	851.4

CC[n+]1ccn(C)c1.COS(=O)(=O)[O-] + CCCCCO
mass density [kg/m3]
Details	298.15 K	303.15 K	308.15 K	313.15 K
x2 = 0.0469	1271.6	–	1265.3	1262.3
x2 = 0.0773	1262.5	–	1256.4	1253.3
x2 = 0.1502	–	1236.4	–	1230.3
x2 = 0.2192	–	1213	1210	1207.1
x2 = 0.2845	1192.8	1189.5	1186.4	1183.4
x2 = 0.4054	1145.4	1142	1138.8	1135.8
x2 = 0.5147	–	1094.1	–	1087.6
x2 = 0.614	1049.7	1046.1	1042.7	1039.4
x2 = 0.7047	1001.8	998	994.6	991.1
x2 = 0.7878	953.9	950	–	942.9
x2 = 0.8642	906.2	–	898.7	–
x2 = 0.9347	858.5	854.5	851	847.1

CC[n+]1ccn(C)c1.COS(=O)(=O)[O-] + CCCCO
mass density [kg/m3]
Details	298.15 K	303.15 K	308.15 K	313.15 K
x2 = 0.0552	1271.5	1268.3	1265.1	1262
x2 = 0.0904	–	1259.1	1256	1253
x2 = 0.1734	1239	1235.9	1232.9	1230
x2 = 0.25	1215.5	–	–	1207
x2 = 0.3207	1192	1189.2	1186.2	1183.6
x2 = 0.4473	1144.6	1141.8	1138.9	1136.4
x2 = 0.5573	1096.9	–	–	–
x2 = 0.6538	1048.8	–	1042.8	–
x2 = 0.7391	1000.4	997.5	994.3	991.4
x2 = 0.815	951.9	948.8	945.4	942.3
x2 = 0.8831	903.3	900	896.5	893.1
x2 = 0.9444	–	851	847.4	843.8

CC[n+]1ccn(C)c1.COS(=O)(=O)[O-] + CCCO
mass density [kg/m3]
Details	298.15 K	303.15 K	308.15 K	313.15 K
x2 = 0.0664	1271.7	1268.5	1265.5	1262.5
x2 = 0.108	1262.6	1259.4	1256.5	–
x2 = 0.2036	1239.6	1236.5	–	1230.9
x2 = 0.2888	1216.5	1213.4	1210.7	–
x2 = 0.3652	1192.9	1190	1187.3	1184.3
x2 = 0.4965	–	–	1139.7	1136.8
x2 = 0.6054	1097.2	1094.5	1091.3	1088.4
x2 = 0.6971	1048.5	1045.7	1042.2	1039.3
x2 = 0.7754	999.1	996.3	992.6	989.8
x2 = 0.843	949.7	946.6	942.7	939.8
x2 = 0.902	899.9	–	892.6	889.4
x2 = 0.9539	849.8	–	842.4	–
